The whole screen tested about 220,000 compounds, of which about 5,700 (2.6%) were called active. The shares of active, inactive and inconclusive entries below differ from those in the screen. The call rests on the fitted dose curve; in most records, active means well fitted inhibition curve with a large enough effect; inconclusive means small, poorly fitted or top-dose-only effect; inactive means no such curve, though single readings can be large or run the other way. Potencies beside an inconclusive call are fits to weak or partial responses and may not hold up.
What follows are compounds tested against Lysine-specific demethylase 5B (Homo sapiens) (UniProt Q9UGL1) (assay: Primary screen for KDM5B Histone Demethylases FDH-coupled qHTS). Details: FDH-coupled NADH fluorescence (FDH is formaldehyde dehydrogenase); series mostly up to 57.7 µM.
From the text: Assay Submitter (PI): Qin Yan, Ph.D. (Yale University) and Xiaodong Cheng, Ph.D. (MD Anderson) This project was funded as part of the NCI NEXT Program and Chemical Biology Consortium (CBC) The histone demethylases, KDM5A and KDM5B catalyze the demethylation of lysine 4 on histone H3 (H3K4me3/2). They are overexpressed in a variety of cancers and have been implicated in cancer cell growth, metastasis, drug resistance, and tumor growth. KDM5A is amplified and overexpressed in breast and gastric cancer; and is translocated in leukemia. While KDM5B is highly expressed in human mammary tumors and breast cancer cell lines, but not in normal adult breast tissue. Moreover, knockdown of KDM5B leads to upregulation of tumor suppressor genes, including BRCA1. The goal of this project is to employ qHTS to identify selective small molecule inhibitors of KDM5A/B demethylase activity to better understand the role of KDM5 in cancer and to develop novel therapies. We employed an FDH-coupled assay previously reported by Sakurai et al. to monitor in vitro KDM5 demethylase activity. Compounds showing dose response inhibition are re-acquired, validated, and tested for non-specific interference with the formaldehyde dehydrogenase (FDH) counterscreen. True inhibitors are validated using an AlphaLisa secondary screen, which employs an H3K4(me2-1)-specific antibody to monitor demethylation of a biotin-tagged H3K4(me3) peptide substrate. Inhibitors are profiled against KDM4A and KDM6A AlphaLisa counterscreens to determine level of demethylase specificity; and against the TruHits counterscreen to eliminate non-specific inhibitory activity on the AlphaLISA detection method. Selective inhibitors identified from the primary and secondary screening are tested in cells using immunofluorescence to monitor global H3K4 tri-methylation as a measure of KDM5A/B inhibition. Early Translation Branch (ETB) National Center for Advancing Translational Sciences (NCATS), Rockville, MD National Institute of Health (NIH), Bethesda, Maryland [1] Sakurai, M et al. A miniaturized screen for inhibitors of Jumonji histone demethylases. Mol Biosyst. 2010 Feb;6(2):357-64. doi: 10.1039/b912993f. Epub 2009 Oct 8.
Materials: 1536-well Black, solid bottom, medium binding assay plate is purchased from Greiner Bio-one. The enzymes (KDM5B) and substrate (H3K4me3/2) are provided by the principal investigators. The buffer for this assay is composed of 50mM HEPES at pH 7.5 with 0.01% Tween-20. FDH coupled Demethylase qHTS protocol: Three microliter enzyme mix (buffer + 200nM KDM5BDeltaAP final concentration) is dispensed into the assay plate using the BioRAPTR Flying Reagent Dispenser (FRD; […]). Compound (at various final concentration) and control solution is pin transferred to the assay plate using the Kalypsys 1536-pin tool apparatus. The assay plate is incubated for 10 min at room temperature followed by addition of 1uL substrate mix (buffer + 100uM ascorbic acid, 50uM ferrous ammonium sulfate, 12.5uM H3K4Me3, 25uM a-ketoglutarate, 0.25 mM NAD+, 0.25 U/mL formaldehyde dehydrogenase using the FRD yielding a total reaction volume of 4 uL. Initial fluorescence (Read1) is detected using the PerkinElmer ViewLux plate reader equipped with 340 nm excitation and 450 nm emission filters. The final fluorescence (Read2) signal is obtained after 30 min of room temperature incubation. Delta RFU is calculated (Read2 - Read1) and is used to generated dose response curves.
Further: nearly all actives have a fitted effect of over 70% in size.
Potency means the concentration at half of the fitted maximal effect; tags describe the fitted curve by direction and shape.

Sequence of UniProt Q9UGL1 (Q9UGL1 whole entry, looked up): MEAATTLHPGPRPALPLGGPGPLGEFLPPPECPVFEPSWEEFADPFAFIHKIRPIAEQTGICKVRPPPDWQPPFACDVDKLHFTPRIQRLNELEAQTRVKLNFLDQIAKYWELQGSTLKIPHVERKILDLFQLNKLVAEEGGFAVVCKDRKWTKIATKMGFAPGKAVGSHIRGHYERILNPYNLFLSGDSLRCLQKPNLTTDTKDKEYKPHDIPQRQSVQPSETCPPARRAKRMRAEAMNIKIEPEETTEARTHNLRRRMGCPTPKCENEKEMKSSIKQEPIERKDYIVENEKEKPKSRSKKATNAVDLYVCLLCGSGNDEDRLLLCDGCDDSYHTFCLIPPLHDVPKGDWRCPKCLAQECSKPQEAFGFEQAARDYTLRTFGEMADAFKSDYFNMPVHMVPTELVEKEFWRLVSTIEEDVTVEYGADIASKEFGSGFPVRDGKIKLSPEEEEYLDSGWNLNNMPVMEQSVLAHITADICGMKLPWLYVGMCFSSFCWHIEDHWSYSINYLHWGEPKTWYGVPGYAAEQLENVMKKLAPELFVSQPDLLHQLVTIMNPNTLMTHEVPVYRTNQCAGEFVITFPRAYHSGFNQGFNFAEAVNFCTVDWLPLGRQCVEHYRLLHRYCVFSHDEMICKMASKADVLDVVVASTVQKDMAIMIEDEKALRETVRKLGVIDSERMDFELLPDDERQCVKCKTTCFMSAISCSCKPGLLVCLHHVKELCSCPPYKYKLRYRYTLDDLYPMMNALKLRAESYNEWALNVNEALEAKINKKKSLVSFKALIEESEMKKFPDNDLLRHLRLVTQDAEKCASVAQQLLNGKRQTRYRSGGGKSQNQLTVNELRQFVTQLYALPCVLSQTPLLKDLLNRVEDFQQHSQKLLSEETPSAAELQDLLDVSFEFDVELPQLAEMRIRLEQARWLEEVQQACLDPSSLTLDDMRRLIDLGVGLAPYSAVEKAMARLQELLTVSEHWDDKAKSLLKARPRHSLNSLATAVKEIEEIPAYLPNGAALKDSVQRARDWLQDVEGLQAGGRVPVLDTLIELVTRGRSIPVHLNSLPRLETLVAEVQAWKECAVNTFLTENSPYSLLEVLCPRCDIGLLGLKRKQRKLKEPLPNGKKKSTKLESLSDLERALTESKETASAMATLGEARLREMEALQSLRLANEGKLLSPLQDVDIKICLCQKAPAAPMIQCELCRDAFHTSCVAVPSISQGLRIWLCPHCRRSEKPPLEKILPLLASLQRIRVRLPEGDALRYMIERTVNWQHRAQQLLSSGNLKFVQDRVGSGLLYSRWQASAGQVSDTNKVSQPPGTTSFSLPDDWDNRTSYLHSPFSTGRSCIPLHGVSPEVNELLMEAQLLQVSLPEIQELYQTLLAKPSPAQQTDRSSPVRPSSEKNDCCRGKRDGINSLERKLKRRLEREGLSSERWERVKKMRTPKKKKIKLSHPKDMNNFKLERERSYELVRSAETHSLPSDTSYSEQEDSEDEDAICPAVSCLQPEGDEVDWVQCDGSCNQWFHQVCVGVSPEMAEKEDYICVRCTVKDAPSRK

| Structure (SMILES) | Potency |
| --- | --- |
| COc1ccc(-c2cc([C@H]3CN4CC[C@H]3C[C@@H]4CNC(=O)Nc3cccc4ccccc34)n(C)n2)cc1OC | inconclusive: 22.4 µM [inhibitor, partial curve, poor fit] |
| Cc1ccc(C)c(NC(=O)CN2C(=O)CN=C(c3ccc(F)cc3)c3c2sc(C)c3C)c1 | inactive |
| COc1cccc(N2C(=O)NC(=O)/C(=C/c3ccc([N+](=O)[O-])s3)C2=O)c1 | inconclusive: 25.1 µM [inhibitor, partial curve, poor fit] |
| O=C(O)C1Cc2ccccc2N2CCCC12 (stereo not given) | inconclusive: 35.5 µM [inhibitor, partial curve, poor fit] |
| C[N+](C)(C)CC1CCCCC1=O (stereo not given) | inactive |
| Cc1ccc(-n2nc(C)c3c2NC(=O)CSC3c2ccsc2)cc1Cl (stereo not given) | inactive |
| COc1ccc2[nH]c(C)c(CCNCc3cccc(F)c3)c2c1 | inconclusive: 20 µM [inhibitor, single point] |
| COCc1cn(C[C@H]2CC3CCN2C[C@@H]3C(=O)Nc2ccccc2)nn1 (stereo not given in full) | inactive |
| N#Cc1ccc(NC(=O)CSC2=Nc3ccccc3C3CC=NN23)cc1Cl (stereo not given) | inactive |
| CC(C)(C)c1ccc(-c2cn(C[C@H]3CC4CCN3C[C@@H]4C(=O)NC3CCCCC3)nn2)cc1 (stereo not given in full) | inactive |
| O=C(c1ccc(Cl)cc1)C1CCCN(Cc2cccc3ncccc23)C1 (stereo not given) | inconclusive: 20 µM [inhibitor, partial curve, poor fit] |
| c1cnc2c(c1)NC1(CCCNC1)C(=NC1CCCC1)N2 (stereo not given) | active: 25.1 µM |
| Cc1ccc2c(n1)N(C)[C@H](CO)CCN(C1COC1)C2 | active: 31.6 µM |
| CS(=O)(=O)N1C[C@@H]2C[C@H](C1)c1ccc(NC(=O)c3ccncc3)c(=O)n1C2 | inconclusive: 35.5 µM [inhibitor, single point] |
| Cc1ncc2c(n1)C[C@@H]1CC[C@H]2N1C(=O)CCc1ccccc1 | inactive |
| CCN(CC)C(=O)c1ccc(NC(=O)c2cc(-c3ccco3)nc3ccccc23)cc1 | inconclusive: 22.4 µM [inhibitor, partial curve, poor fit] |
| O=C1NC(=O)C(=Cc2ccc3ccccc3c2)C(=O)N1 | inconclusive: 22.4 µM [inhibitor, partial curve, poor fit] |
| COc1ccccc1CNCCc1ccc(F)cc1 | inconclusive: 14.1 µM [inhibitor, partial curve, poor fit] |
| C/C(=N\NC(=O)c1ccncc1)c1c(O)n(-c2ccccc2)c(=O)[nH]c1=O | inconclusive: 25.1 µM [inhibitor, partial curve, poor fit] |
| Cc1nc(-c2cccs2)cc([C@H]2CN3CC[C@H]2C[C@@H]3COC(=O)NC2CCCCC2)n1 | inactive |
| COc1ccccc1-c1cc([C@H]2CN3CC[C@H]2C[C@@H]3COC(=O)Nc2cccc(C(C)=O)c2)nc(C)n1 | inconclusive: 25.1 µM [inhibitor, partial curve, poor fit] |
| C=CC1CN2CCC1CC2C(OC(C)=O)c1ccnc2ccc(OC)cc12 (stereo not given) | inconclusive: 28.2 µM [inhibitor, partial curve, poor fit] |
| CCCNC(=O)N1[C@H]2CC[C@@H]1c1cnc(-c3ccccc3)nc1C2 | inactive |
| O=C1/C(=C\c2ccc(Cl)c(Cl)c2)N2CCC1CC2 | inconclusive: 14.1 µM [inhibitor, partial curve, poor fit] |

| Structure (SMILES) | Potency |
| --- | --- |
| COc1cccn(CC(=O)N2CCN(C)C3(CCNCC3)C2)c1=O | active: 12.6 µM |
| COc1ccc(OCC(=O)N2CCN(Cc3cc(=O)n4nc(-c5ccc(OC)cc5)sc4n3)CC2)cc1 | inconclusive: 3.55 µM [inhibitor, full curve, poor fit] |
| O=C(c1ccncc1)N1C[C@@H]2C[C@H](C1)c1ccc(-c3cccc(C(F)(F)F)c3)c(=O)n1C2 | active: 28.2 µM |
| COc1cccc(-c2cc(C(F)F)n3ncc(C#N)c3n2)c1 | inactive |
| COc1cccc(CNCCc2ccc(F)cc2)c1 | inconclusive: 10 µM [inhibitor, partial curve, poor fit] |
| O=C1CC2CCN(Cc3cccc(Br)n3)CC2CCN1 (stereo not given) | inactive |
| COc1ccc(C(=O)N2C[C@@H]3C[C@H](C2)c2c(-c4ccc(Cl)cc4)ccc(=O)n2C3)cc1 | inconclusive: 31.6 µM [inhibitor, partial curve, poor fit] |
| Cc1cc(OS(C)(=O)=O)c2c3c(c(=O)oc2c1)CCCC3 | inactive |
| CCOc1ccc2c(n1)CCNC2 | inactive |
| CCNC(=S)NCCC1=c2ccccc2=N/C1=C\c1c(O)n(C)c(=O)n(C)c1=O | inconclusive: 20 µM [inhibitor, partial curve, poor fit] |
| COCCn1c(C)cc(C(=O)N2[C@H]3CC[C@@H]2c2cnc(-c4ccc(F)cc4)nc2C3)c1C | inactive |
| Cc1cccc(Cn2cccc(C(=O)Nc3ccc(F)cc3F)c2=O)c1 | inconclusive: 39.8 µM [inhibitor, single point] |
| CC[C@H]1CN2CC[C@H]1C[C@@H]2CNC(=O)c1ccc(-c2ccccc2)cc1 | inactive |
| O=S(=O)(NC[C@H]1C[C@@H]2CCN1C[C@@H]2CN1CCN(c2ncccn2)CC1)c1ccccc1 | inactive |
| COc1ccc(OCC(=O)N2CCN(Cc3ccc(SC)cc3)CC2)cc1 | inconclusive: 25.1 µM [inhibitor, partial curve, poor fit] |
| CN1CCC(N2C[C@@H]3C[C@H](C2)c2c(NC(=O)NC4CCCCC4)ccc(=O)n2C3)CC1 | inconclusive: 39.8 µM [inhibitor, partial curve, poor fit] |
| C#C[C@H]1CN2CC[C@H]1C[C@@H]2CNS(=O)(=O)c1cccc(C#N)c1 | inactive |
| O=c1[nH]c(=O)n(Cc2ccccc2)c(O)c1/C=N/NCCO | inconclusive: 39.8 µM [inhibitor, single point] |
| O=C(NC1CCCCC1)N1C[C@@H]2C[C@H](C1)c1c(-c3ccccc3F)ccc(=O)n1C2 | inactive |
| Cc1ccccc1NC(=O)c1cn(Cc2ccccc2)nn1 | inactive |
| Cc1nc(-c2ccccc2Br)cc([C@H]2CN3CC[C@H]2C[C@@H]3CNC(=O)c2ccc(C(C)(C)C)cc2)n1 | inactive |
| C=C[C@H]1CN2CC[C@H]1C[C@@H]2CNC(=O)Nc1ccc(C(C)(C)C)cc1 | inconclusive: 25.1 µM [inhibitor, partial curve, poor fit] |
| O=[N+]([O-])/C=C\c1c[nH]c2ccccc12 | inconclusive: 22.4 µM [inhibitor, partial curve, poor fit] |
| O=C(Nc1cccc(F)c1)N1C[C@@H]2C[C@H](C1)c1c(-c3ccc(Cl)cc3)ccc(=O)n1C2 | inactive |

| Structure (SMILES) | Potency |
| --- | --- |
| COc1cccc([C@H]2CN(C(=O)Cc3cnc[nH]3)[C@@H]3C4CCN(CC4)[C@H]23)c1 | inconclusive: 11.2 µM [inhibitor, partial curve] |
| O=C(CN1CCCCC1)c1ccc(-c2ccccc2)cc1 | inconclusive: 39.8 µM [inhibitor, single point] |
| CN(C)[C@@H]1CN(C(=O)Cc2ccccc2)C[C@H]1CO | inactive |
| COc1cc2c(cc1OCc1ccccc1)N([S+](=O)([O-])c1cccc(C)c1)CC21CCN(C)CC1 | inconclusive: 28.2 µM [inhibitor, partial curve, poor fit] |
| Cc1ccc(CN2C[C@@H]3C(C(N)=O)=NO[C@@H]3C2)nc1 | inconclusive: 31.6 µM [inhibitor, partial curve, poor fit] |
| CCCCCCCCCCCCn1ccc(=N)cc1 | inconclusive: 39.8 µM [inhibitor, single point] |
| O=[S+]1([O-])NC2(CCN(CC3CCOCC3)C2)COc2ccncc21 (stereo not given) | inconclusive: 17.8 µM [inhibitor, full curve] |
| O=C1NC2(CCN(Cc3cccnc3)C2)OCc2ccccc21 (stereo not given) | inactive |
| O=C(Nc1cccc(Br)c1)c1c(O)c2c(n(Cc3ccccc3)c1=O)CCCC2 | inconclusive: 11.2 µM [inhibitor, partial curve, poor fit] |
| FC(F)(F)CN1C2CCC1CN(c1cncnc1)C2 | inactive |
| CCc1ccc2[nH]c(C)c(CCN)c2c1 | inconclusive: 35.5 µM [inhibitor, single point] |
| CC1=NOC2(CCCN(Cc3ccccn3)C2)C1 (stereo not given) | inconclusive: 79.4 µM [inhibitor, partial curve, poor fit] |
| c1ccc(CCN2CCC3(CC2)OCCO3)cc1 | inactive |
| COc1cccc(CN2CCCCCCNC(=O)[C@@H]3CCC[C@@H]32)n1 | inconclusive: 3.16 µM [inhibitor, single point] |
| CC(=O)c1cn(C[C@H]2CC3CCN2C[C@@H]3C(=O)NC(C)C)nn1 (stereo not given in full) | inactive |
| CCC(CC)c1cc([C@H]2CN3CC[C@H]2C[C@@H]3CNC(=O)COc2ccccc2)nc(-c2ccncc2)n1 | active: 25.1 µM |
| COc1ccc(-c2cnc3[nH]cc(CC(=O)N4CCN(C)CC4)c3c2)cc1OC | inconclusive: 39.8 µM [inhibitor, partial curve, poor fit] |
| CCCCC(=O)N/N=C/c1c(O)n(CCCC)c(=S)[nH]c1=O | inconclusive: 31.6 µM [inhibitor, partial curve, poor fit] |
| Cc1ncc2c(n1)C[C@@H]1CC[C@H]2N1C(=O)NC(C)C | inactive |
| O=C(CN1C(=O)CN=C(c2ccccc2F)c2cc(Cl)ccc21)Nc1ccccc1C(F)(F)F | inactive |
| O=C(NC1CC1)[C@H]1CN2CCC1C[C@@H]2Cn1cc(CCO)nn1 (stereo not given in full) | inactive |
| O=C(Nc1ccc(Cl)cc1)N1C[C@@H]2C[C@H](C1)c1c(-c3ccccc3F)ccc(=O)n1C2 | inactive |
